# Assay results taken from the supplement of paper PMC11417369.
# The list shows a part of the results.
# Test system: PfHDP1 homeodomain (GST-tagged)
# Test: gcPBM binding intensity (ln(normalized median fluorescence intensity)); higher = stronger DNA binding
# Procedure, shortened: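 GST-fused DNA-binding domains of P. falciparum, expressed in E. coli, were applied at about 25 μg on average for 1 h to an Agilent 4 × 180k array of primer-extended double-stranded 36-bp intergenic genomic probes and negative controls. Binding intensity is the highest Masliner-normalised natural-log median intensity across replicate spots of either probe orientation, measured with Alexa488 anti-GST antibody and a 488 nm scan.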
row,Sequence,gcPBM binding intensity (ln)
1,CAAATAGCTAGCTGTGCACACAAACATATTTTCCAA [CACACA_site879],11
2,AAAATGCATTTGATGTGTACGCATTATAAAGAACAA [XGTACX_site4203],7.39
3,ATGGAAATAAAAAAAAAAAAAAAAAAAAATATATAT [GTGCAC_negctrl_site67],6.36
4,TAGCCCACATTTAATGGTACAGTGAGTATATATATG [XGTACX_site8044],6.62
5,TAATATATTTATAGAGCATGCAACGTAATATTATTA [TGCATGCA_site863],7.61
6,TACATAAAATACCATGCATGCTAGTAAAAAAAAAAA [TGCATGCA_site650],6.04
7,TCTTTTCTTTTGTGTGTGCACATATAAGCATGAAAC [GTGCAC_site9910],10.4
8,TTATTTTTTGTATGAACACACAACTTAATTATGATG [CACACA_site2448],6.67
9,ATGTTTCTATAGATTTGTACATATTTCATATGAATA [XGTACX_site1053],6.78
10,TTTTACAAATATTTCTGTACACATTCTCATATAATT [XGTACX_site1974],7.04
11,TTTTTTAATTAATTACCTTTGAATGTGTATTAGGAC [GTGCAC_negctrl_site651],6.88
12,ATAGCATTTCACAAATGTACATAAAAAAATAAAAAT [XGTACX_site402],6.91
13,AAATGACGAAATAAAATCATAAATTAAAATAAATAA [CACACA_negctrl_site655],6.26
14,TAAAACAAAATGGTAACACACACATATATATATATA [CACACA_site8590],9.2
15,AAATGGAAATTAATATGTACATATTTATAAGTATGA [XGTACX_site1774],6.6
16,TCCTATCATTTATATTTTACTACATAATATTGATAA [GTGCAC_negctrl_site286],6.41
17,AATATATAAATATATATAAATAAATATATATATAAA [CACACA_negctrl_site49],5.93
18,GTATTCATTCCTTGAGTGCAATTGCAATAAATAAAA,10.7
19,CATATTAAGATGTGTACACATTTTTATTTTTTTTTT [CACACA_site4425],6.63
20,GAAAAGTATAAAAAACGTACAAGTTTTATTTTCACA [XGTACX_site4604],5.81
21,TAAAATAAAAAGTTTACACACATATATAACTTTAAT [CACACA_site6456],6.24
22,CCCCTATAAATAGGGTGTACTAATAAATATTTTTAA [XGTACX_site1244],6.77

row,Sequence,gcPBM binding intensity (ln)
1,ACGGGCGACACATAAGTGCGCAAAAAAAAAAAAATA [GTGCAC_site9688],7.33
2,AAAATACAGAAACACACACACACACCCATATATATA [CACACA_site3559],6.93
3,TTTTATAAAACATGTAGTACATGAAAAAAAAAATTT [XGTACX_site1626],6.37
4,GTTTTTATCATATCATGTACGTATTTTATTTTTTTT [XGTACX_site8643],6.82
5,CTTCTGGACAGGAATGCACACATTTTTTTTTCTTTT [CACACA_site1807],9.25
6,ATCAAAGATAAATTTACACACATATAAATATAAATA [CACACA_site7409],6.57
7,ATGAATTTTTCTCTACAAAAGGATATAATAAAAATA [XGTACX_negctrl_site461],6.04
8,TTTTCTAATTAATATTGTACATAAATGTATATATAT [XGTACX_site4749],6.46
9,TAGTGTGCCAAATTAGCACACACATATATACATGAA [CACACA_site8910],7.82
10,ACATCCTATAAATAGAGTACGTAAATTATAATACAC [XGTACX_site5338],6.69
11,TATATATATATATATTGTACAAAGATTAATATATAA [XGTACX_site8433],9.05
12,ACTTAATTTTTTTATTGTACATGTAAATGAGGGAAA [XGTACX_site6305],7.08
13,TATTTTAATAAGAATAAATGAAATGAAATGAAATAT [CACACA_negctrl_site823],6.62
14,CATTTTATTCTATATGCATGTTAAAAAATGTGTTGA [TGCATGCA_site128],6.49
15,TAATAATAAAAAATACGTACATATTATTTATATATG [XGTACX_site853],6.26
16,ATATATAAGAACATATATATTGGAAATATTGAATTT [XGTACX_negctrl_site121],6
17,AATAAAAATATTATATGTACATATTTTAATATATAT [XGTACX_site1259],6.44
18,TTATGGTATAAAAAAATACACACTTATATATATTCT [CACACA_site488],6.22
19,TTTTATTTTTTCTATACATGCATGTCCAATTTTCTT [TGCATGCA_site304],7.35
20,GTTTTTTTATAAAATTTTTATATAATTCTTTTATAA [CACACA_negctrl_site1605],6.51
21,AAAAAAAAAAAAAACACACATACACGCCCACCCATA [CACACA_site3391],7.17
22,TAATTATAATAATAACGTACATATATAAAATGGTGA [XGTACX_site8434],6.69

row,Sequence,gcPBM binding intensity (ln)
1,TTAAAATATGTAGCTACACACACATAAACAAAATAA [CACACA_site8244],6.87
2,TATATATATATATAGGTGCTATAATTTATATACACA,9.23
3,TGTAGTCTGGAGAAAAGTACACAGTATCTGGTAGCT [XGTACX_site2012],5.95
4,TTTTTTTTTCTGAATTTATAATTCAAAAATATATAT [CACACA_negctrl_site300],6.21
5,TTATATAACTTTTCTAGTACTTGTATAAATTCCTAC [XGTACX_site3685],6.64
6,AAAAAAAAAGAAAAACGTACGTTTATTTAATATATA [XGTACX_site4018],6.28
7,ATAATACCCATTATCTTACAACAAAATGCAAACAAA [CACACA_negctrl_site1037],7.26
8,AACATAATATCATATACACACAAAAATATTGAAATA [CACACA_site2160],6.81
9,AAGAACATATTATATACATGCATAATTCGATAGATT [TGCATGCA_site882],6.38
10,AAAATTAGATTATGCACACACACTTAAAAATAATAA [CACACA_site1975],10.1
11,TACTTATTTTTATAGCATTTCACGGAGGTAGTAATA [CACACA_negctrl_site468],6.52
12,ATAATAAATCATCATATTACATTTATCTTTGTTGGA [CACACA_negctrl_site849],6.46
13,AACTGTAATTTTATACGTACATAAATAATATTATAT [XGTACX_site4277],6.5
14,AGCAGTTTTTTTTTTTTTTTTTTTTTTATTAAAAGC [XGTACX_negctrl_site392],5.87
15,TTTATTATATGCACACGTACATATAATATATATATA [XGTACX_site4108],10.8
16,TTTGCAACATATAAAAGTACAAATAATATATTTATT [XGTACX_site890],6.76
17,AAGTGAAATAAAATATGTACATATATGTATATATAA [XGTACX_site4473],6.57
18,TATATATAAAATGTATGTACATATTTATTTATATAG [XGTACX_site657],6.11
19,TTTTTTCTTCGTGTATTAAGTCACAATAGGAAAAAA [GTGCAC_negctrl_site644],6.44
20,AAAAAAAAAGAATGTGAACACACACCGTGAATATAA [CACACA_site8342],6.57
21,ATCGGTATATTATTACATGAATAAACTTACACACAC [TGCATGCA_negctrl_site21],7.44
22,TTGTATTAATAATTTTTTATATTATAGTTTATAATA [GTGCAC_negctrl_site130],6.44

row,Sequence,gcPBM binding intensity (ln)
1,TATATATATAACATTGTACACACAAAGAAATAATAT [CACACA_site8998],7.29
2,TGTATAATAAGGAAGAGTACAAGTAAATACACACAT [XGTACX_site2084],7.72
3,TACATATATAAAAAAACACACACATATATATATATA [CACACA_site8315],9.55
4,TGTATTTATAGACACACACACTTTCTTTTTTTAAGA [CACACA_site7010],6.47
5,AACAATTAGAACTTTGCACACTTCTATATATTTTGT [CACACA_site674],10.2
6,TATGTAAAATGTGTTTGTACTTATTTATTATATAAA [XGTACX_site2816],6
7,ATTATAAATATCAGTGCACACATTTCTACGCAAAGT [CACACA_site4420],9.79
8,AAGGAGCCTATGAACACACACATGTACAGATATTAA [CACACA_site6107],6.49
9,TTTCTAAGAAAAAAAAAAAAAAAAAAAAAGATACAA [GTGCAC_negctrl_site525],5.61
10,ATATTTATTTTAATTTTTCTATATAAACTATTATGA [CACACA_negctrl_site739],6.19
11,AGGAAGGAAATAAATCAACACACATATATTATATAT [CACACA_site8678],6.53
12,TATATATATTATATATGTACATATTGTATATTTTTG [XGTACX_site4564],6.95
13,TTACAAAACACTTATACACACATATATATATATATA [CACACA_site2716],9.46
14,TAATATATTAAAAATAGTACATAAGAAAAATAAGTA [XGTACX_site7957],6.81
15,CAAAATTATCAGAATCGTACATTTTTAACATATAAT [XGTACX_site7909],6.22
16,AAAACTATATTAATGTGTACACATCAAAATATTAAT [XGTACX_site6767],6.86
17,ATATATTTTTATGTAGTGCATTTAAATAATAAATGC,8.54
18,ATTTTTTCCAATTCTTTACCTTAGAAAGGTGTTCAA [CACACA_negctrl_site1401],6.25
19,ATTCTAAATAAATGTACACACAAAAATAAATGTATA [CACACA_site1732],6.5
20,ATATATATATAATGAAGTACGAAAAAATAAGAAATG [XGTACX_site4001],8.47
21,ACCTCATAATATTTAACACACAAAATTATATGTATG [CACACA_site1704],6.73
22,TATCCTTATATTTGCACACACACACCCTAAAATGAA [CACACA_site1029],10.6
